From PubChem BioAssay AID651820 (National Center for Advancing Translational Sciences (NCATS), 2012)
Among all 340,000 compounds or so, about 12,000 (3.5%) were called active. The inconclusive results got no clear call from the source; some entries with a clear call stand among them for comparison. Calls follow the shape of the dose curve; as a rule, active = well fitted inhibition curve with a large enough effect; inconclusive = small, poorly fitted or top-dose-only effect, or another doubt; inactive = no such curve, though single readings can be large or run the other way. Potencies of inconclusive entries are left out as doubtful fits.

experiment: qHTS Assay for Inhibitors of Hepatitis C Virus (HCV); conditions: Huh7.5.1 HCVcc-Cre (HCVcc is cell-culture hepatitis C virus) infection, luciferase reporter, 44 h; activity change, negative = inhibition: at 41.8 µM (top of the series) unless noted
Procedure, shortened: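 Seed cells (1,000/well) for 4 h; treat with compound and infect with HCVcc-Cre, moi about 0.5. Incubate 44 h, then detect luciferase activity.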
% is scaled to controls: 0 for no effect and ±100 for the full control effect; potency is read from the fitted curve at half-maximal effect; tags tell the direction and shape of the fitted curve.

SMILES | Potency | activity change, negative = inhibition
Cc1nn(-c2ccccc2)c(C)c1/C=N/Nc1nc2ccccc2[nH]1 | inconclusive [inhibitor, single point] | 
COc1ccccc1C(=O)Nc1ccc(S(=O)(=O)N2CCCCC2)cc1 | inconclusive [inhibitor, single point] | 
Cc1ccccc1Cn1nc(C)c(NC(=O)/C=C/c2cnn(C)c2C)c1C |  | inactive: -3.17%
COc1ccc(C2C(C#N)=C(C)NC(C)=C2C(=O)OC(C)C)c(OC)c1 (stereo unspecified) |  | inactive: 7.83%
Nc1cc(Cl)ccc1C(=O)OCC(=O)NC1CCCCCCC1 |  | inactive: -3.74%
CCC(C)(C)NC(=O)C(c1ccccc1)N(Cc1cccs1)C(=O)Cn1nnc2ccccc21 (stereo unspecified) | inconclusive [inhibitor, single point] | 
Cc1ccccc1C(=O)Nc1cccc(NC(=S)NC(=O)c2cccs2)c1 | inconclusive [inhibitor, single point] | 
CCCN(CCC)S(=O)(=O)c1ccc(Cl)c([N+](=O)[O-])c1 | inconclusive [inhibitor, single point] | 
COC(=O)c1c(NC(=O)C(Cl)Cl)sc2c1C(C(=O)OC)CC2 (stereo unspecified) | inconclusive [inhibitor, partial curve] | 
CCCCC(NC(=O)Cc1c(C)c2cc3c(-c4ccccc4)coc3c(C)c2oc1=O)C(=O)O (stereo unspecified) |  | inactive: -2.74%
CC(C)(C)c1cc(OS(C)(=O)=O)ccc1O |  | inactive: -0.719%
COc1ccc(OC)c(S(=O)(=O)n2nnc3cc(Cl)ccc32)c1 |  | inactive: -9.73%
CCOC(=O)c1c(C)oc2c1c1c(c3ccccc32)OCN(CCCC(=O)O)C1 | active: 10 µM | 
Cc1c(C(=O)NCCC2=CCCCC2)oc2ccc(S(=O)(=O)N3CCC4(CC3)OCCO4)cc12 | active: 12.6 µM | 
CC(=O)c1ccc(NC(=O)COC(=O)c2c[nH]c3ccccc23)cc1 | inconclusive [inhibitor, single point] | 
Cc1ccnc(NC(c2ccccc2O)c2oc(CO)cc(=O)c2O)c1 (stereo unspecified) | inconclusive [inhibitor, single point] | 
CC(C)OC(=O)CC1C(=O)NCCN1C(=S)NC(=O)c1ccc(F)cc1 (stereo unspecified) |  | inactive: 18.7%
COc1cccc(/C=N/NC(=O)c2[nH]c(C)c(C(=O)N/N=C/c3cccc(OC)c3O)c2C)c1O | inconclusive [inhibitor, single point] | 
COc1ccc(OCCCC(=O)Nc2cccc(C(C)=O)c2)cc1 |  | inactive: -14.4%
O=S(=O)(NC1CCN(Cc2ccccc2)CC1)c1cccc2cccnc12 | inconclusive [inhibitor, full curve, poor fit] | 
NC(=O)CN1C(=O)C2C3C=CC(C3)C2C1=O (stereo unspecified) | inconclusive [inhibitor, single point] | 
CCOc1cc(/C=N/NC(=O)CN2CCCCC2)ccc1OCc1ccccc1 | inconclusive [inhibitor, full curve, poor fit] | 
O=C(Cn1ccc(C(F)(F)F)n1)Nc1cccc(S(=O)(=O)N2CCCCC2)c1 | inconclusive [inhibitor, single point] | 

SMILES | Potency | activity change, negative = inhibition
CCCN(CCC)C(=O)Cc1coc2ccc3ccccc3c12 |  | inactive: -19.3%
CCOC(=O)C1=C(c2ccccc2)N=c2s/c(=C\c3cccc(O)c3)c(=O)n2C1c1cccs1 (stereo unspecified) | active: 31.6 µM | 
CN(C)CCNC(=O)c1ccc2c(c1)NC(=O)c1ccccc1S2 | active: 8.91 µM | 
COc1ccccc1CNC1CCN(Cc2ccccc2)CC1 | inconclusive [inhibitor, partial curve] | 
O=C(COc1ccc(S(=O)(=O)NC2CCCCC2)cc1)Nc1ccc2c(c1)OCCO2 | inconclusive [inhibitor, partial curve, poor fit] | 
CN(C)c1ccc(/C=C2\N=C(C(C)(C)C)OC2=O)cc1 | inconclusive [inhibitor, single point] | 
CCC(C)SCC(=O)Nc1ccc(S(=O)(=O)N2CCOCC2)cc1OC (stereo unspecified) | active: 11.2 µM | 
O=C1C(Nc2ccccc2)=CC(c2ccc(O)cc2)N1c1ccccc1 (stereo unspecified) |  | inactive: -29.1%
CC(C)=CCN1CCN(Cc2c(C)nn(C)c2Cl)CC1CCO (stereo unspecified) |  | inactive: 17.9%
N=c1c2c3c(sc2ncn1N)CCCCC3 | inconclusive [inhibitor, single point] | 
O=C(N/N=C/c1ccc[nH]1)c1c[nH]c2ccccc12 | active: 0.891 µM | 
O=C(COc1ccccc1)Nc1nnc(S(=O)(=O)N2CCCCCC2)s1 | inconclusive [inhibitor, single point] | 
CCCCc1cc2c(c(NC(=O)CC)n1)c(=O)oc1ccccc12 |  | inactive: 4.55%
CC(=O)Nc1c(Cl)cc2c(c1Cl)C(=O)c1ccccc1-2 | active: 11.2 µM | 
Cc1cc(C(=O)N[C@H](c2ccccc2)[C@@]2(C)C[C@@H]2[C@@H](C)C(=O)Nc2ccc3ccccc3c2)n(C)n1 | inconclusive [inhibitor, single point] | 
CCC(C)N1C(=O)S/C(=C/c2ccc(N3CCOCC3)cc2C)C1=O (stereo unspecified) | inconclusive [inhibitor, single point] | 
CC1=C(C(=O)NCc2ccccc2)C(c2cccs2)NC(=S)N1 (stereo unspecified) | inconclusive [inhibitor, partial curve] | 
Cc1nc2cc(F)ccc2n1C1CCN(C(=O)c2ccc(F)cc2F)CC1 | inconclusive [inhibitor, single point] | 
COc1ccc(-c2cc(OC)c3ccccc3n2)cc1 | inconclusive [inhibitor, partial curve] | 
O=[N+]([O-])c1cccc(S(=O)(=O)Nc2ccc(Cc3ccncc3)cc2)c1 | inconclusive [inhibitor, single point] | 
Cc1ccc(CNC(=O)CCC(=O)N2CC(C)Oc3ccc(Cl)cc32)cc1 (stereo unspecified) | inconclusive [inhibitor, single point] | 
CCOC(=O)C1CCCN(C(=O)C(=O)Nc2ccc3nc4n(c(=O)c3c2)CCCCC4)C1 (stereo unspecified) | inconclusive [inhibitor, single point] | 
CNC(=O)NNC(=O)c1csc(Cc2c(Cl)sc3ccc(Cl)cc23)n1 |  | inactive: -13%
